About 2,200 (0.71%) of roughly 310,000 compounds showed an effect of 50% or more. The effect is printed as a negative number. Some of the results follow.
The molecules below were run against human ether-à-go-go-related gene (hERG) potassium channel (human, UniProt Q12809) (assay: primary screen, population patch clamp on CHO cells stably expressing hERG).
Chain of human ether-à-go-go-related gene (hERG) potassium channel (Q12809 whole entry, looked up): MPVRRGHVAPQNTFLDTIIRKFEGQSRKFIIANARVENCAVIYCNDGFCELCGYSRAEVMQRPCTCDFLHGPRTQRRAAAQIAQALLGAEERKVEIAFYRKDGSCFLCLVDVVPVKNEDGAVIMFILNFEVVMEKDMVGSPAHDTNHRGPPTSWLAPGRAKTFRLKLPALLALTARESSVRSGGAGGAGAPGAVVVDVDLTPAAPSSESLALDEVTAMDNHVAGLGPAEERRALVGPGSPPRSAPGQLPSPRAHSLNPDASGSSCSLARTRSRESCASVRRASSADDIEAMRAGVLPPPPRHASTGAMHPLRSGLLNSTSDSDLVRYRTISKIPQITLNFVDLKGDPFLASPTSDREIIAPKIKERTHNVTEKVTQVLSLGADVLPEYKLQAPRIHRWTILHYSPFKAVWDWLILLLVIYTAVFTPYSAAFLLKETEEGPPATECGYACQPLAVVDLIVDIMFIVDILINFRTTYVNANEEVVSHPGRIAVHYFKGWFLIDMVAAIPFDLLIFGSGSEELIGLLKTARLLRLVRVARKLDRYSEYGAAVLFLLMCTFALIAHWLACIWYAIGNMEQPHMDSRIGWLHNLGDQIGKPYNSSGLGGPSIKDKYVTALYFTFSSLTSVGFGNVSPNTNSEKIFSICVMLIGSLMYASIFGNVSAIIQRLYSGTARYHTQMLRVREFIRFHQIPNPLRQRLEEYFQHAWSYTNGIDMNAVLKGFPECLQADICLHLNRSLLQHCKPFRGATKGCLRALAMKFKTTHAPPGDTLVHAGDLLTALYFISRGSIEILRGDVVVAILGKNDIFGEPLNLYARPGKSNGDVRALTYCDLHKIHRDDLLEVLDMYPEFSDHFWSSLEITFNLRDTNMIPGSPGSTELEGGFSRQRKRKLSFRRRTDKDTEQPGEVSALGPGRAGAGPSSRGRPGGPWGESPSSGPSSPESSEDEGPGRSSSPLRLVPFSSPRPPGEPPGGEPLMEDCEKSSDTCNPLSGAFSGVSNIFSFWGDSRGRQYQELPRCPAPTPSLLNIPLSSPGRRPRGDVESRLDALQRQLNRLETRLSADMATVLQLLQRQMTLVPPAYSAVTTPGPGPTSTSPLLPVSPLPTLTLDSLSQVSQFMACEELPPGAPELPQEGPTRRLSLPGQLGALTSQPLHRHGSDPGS

Row | Structure (SMILES) | hERG current change (%, negative = inhibition) at 1uM [%]
1 | CCSC1=N/C(=C\c2ccc(C)s2)C(=O)S1 | 6.16
2 | CN(Cc1ccccc1)C(=O)c1nc[nH]c1C(=O)N1CCc2ccccc2C1 | 19.7
3 | O=c1cc(-c2ccc(O)cc2)oc2ccccc12 | 15
4 | O=C(O)c1ccc(Cn2cnc3cccnc32)cc1 | 17.6
5 | CCOC(=O)[C@H]1[C@H]2COc3ccccc3[C@@H]2N2C(=O)c3cc(Br)ccc3NC(=O)[C@@]12C | 3.07
6 | COc1ccc(CCCC(=O)NC2CCCCC2C)c(C)c1 (stereo not drawn) | 4.6
7 | Cc1cccc(NC(=O)c2ccc(S(=O)(=O)N3CCCCCC3)cc2)n1 | 7.3
8 | Oc1oc(-c2ccccc2)nc1C=Nc1cccc2ccccc12 | -5.64
9 | CCOC(=O)C1CCCN(S(=O)(=O)Cc2ccccc2)C1 (stereo not drawn) | 12.8
10 | CC(NCc1ccc2c(c1)OCO2)C(=O)N1CCc2ccccc21 (stereo not drawn) | 3.4
11 | Cc1ccc(CSCC(=O)NCc2ccco2)cc1 | -5.3
12 | CC(C)(C)NC(=O)C1Cc2ccccc2CN1C(=O)Nc1cccc(Cl)c1 (stereo not drawn) | 8.2
13 | O=C(O)CN1CCN(Cc2ccc(F)cc2)C1=O | 14.8
14 | CCCCC(=O)N/N=C(\C)CC(=O)Nc1ccccc1Br | 11.2
15 | O=C(c1cccnc1)N1CCC(Oc2ccc(C(=O)N3CCCC(O)C3)cc2)CC1 (stereo not drawn) | 3.9
16 | CCOC(=O)CC1=NN(c2ccccc2)C(=O)/C1=C\c1ccc(OC)cc1OC | 4.4
17 | CN(C(=O)CCc1ccccc1F)C1CCCN(Cc2ccccc2F)C1 (stereo not drawn) | 12.7
18 | CCCC(=O)Nc1ccccc1NC(=O)CCC | 6.22
19 | c1ccc(-n2nnnc2Cc2nnnn2-c2ccccc2)cc1 | 17.1
20 | O=S(=O)(N/N=C1/CCCc2ccccc21)c1ccc(Br)cc1 | -0.0836
21 | COc1ccc(CCN2C(=O)CN(Cc3ccccc3)CC2=O)cc1OC | -0.637
22 | Cc1cccc(OCC(=O)N/N=C/c2ccccc2C(=O)O)c1 | 13.3
23 | Nc1nnc2c(C(F)(F)F)nc3ccccc3n12 | 14.3

Row | Structure (SMILES) | hERG current change (%, negative = inhibition) at 1uM [%]
24 | CCc1ccc(C(=O)CSc2nnc(C)c(=O)[nH]2)cc1 | 4.47
25 | COC(=O)c1cccc(Oc2cccc(Cl)n2)c1 | 14.3
26 | COC(=O)c1ccc(CSc2nc3ccccc3c(=O)n2Cc2ccco2)o1 | 0.306
27 | Cc1ccc(C)c(OCCn2ccnc2)c1 | 14.2
28 | NS(=O)(=O)c1ccc(CNC(=S)NC2CCCC2)cc1 | 6.91
29 | CCC(=O)N1CC(C)C(=O)Nc2ccccc21 (stereo not drawn) | 15.3
30 | Cc1nnc(SCC(=O)NCc2ccco2)n1-c1ccc(F)cc1 | 1.96
31 | COC(=O)[C@H]1[C@H](C(=O)OC)[C@@H](C(=O)OC)N(c2ccc(OC)cc2)[C@@H]1C(=O)OC | 33
32 | Cc1c(C(c2ccccc2Br)c2c(C)n(C)n(-c3ccccc3)c2=O)c(=O)n(-c2ccccc2)n1C | 11
33 | COc1ccc(NC(=O)CCN2C(=O)NC3(CCCC3)C2=O)cc1Cl | 2.81
34 | CCOc1ccc(S(=O)(=O)N2CCC(C(=O)NCCc3ccc(OC)c(OC)c3)CC2)cc1 | 4.11
35 | COc1ccc(N2CCN(C(=O)c3ccc(N(C)S(=O)(=O)c4ccc(OC)cc4)cc3)CC2)cc1 | 11.2
36 | CCC(=O)N1CCc2cc(S(=O)(=O)NC(C(=O)Nc3cccc(C)n3)C(C)C)ccc21 (stereo not drawn) | 15.7
37 | Cc1ccc(-n2c(=O)c3ccccc3n(CC(=O)C(C)(C)C)c2=O)cc1 | 11.8
38 | COc1cccc(N2CCN(C(=O)c3ccc(CS(=O)Cc4ccccc4Cl)o3)CC2)c1 (stereo not drawn) | 15
39 | COc1cc(C2NC(=S)NC(c3ccccc3)=C2C(C)=O)cc(Cl)c1OCC(=O)O (stereo not drawn) | 5.45
40 | CCc1ccc(NC(=O)C(=O)c2cn(CC(=O)N3CCCCC3)c3ccccc23)cc1 | 5.86
41 | CCC(C(=O)Nc1cccc(S(=O)(=O)N(C)c2ccccc2)c1)c1ccccc1 (stereo not drawn) | 3.67
42 | Cn1c(NC(=O)c2ccc(F)cc2)c(-c2cccs2)c(=O)c2ccccc21 | 11.7
43 | O=C(CSc1nnc(SCc2cccc3ccccc23)s1)Nc1ccc(C(=O)O)cc1 | 17.9
44 | O=[N+]([O-])c1cnn2cc(Br)cnc12 | 5.98
45 | CCOC(=O)c1ccc(NC(=O)COc2ccc(CNC3CCCCC3)cc2OC)cc1 | 6.89
46 | COc1cc(C)c(Cc2cnc(N)nc2N)cc1OC | 4.47

Row | Structure (SMILES) | hERG current change (%, negative = inhibition) at 1uM [%]
47 | CCOc1ccc(/C=C/C(=O)OCC(=O)c2ccccc2OC)cc1OC | 10.9
48 | Cc1cc(C)cc(NS(=O)(=O)c2ccc(NC(=S)Nc3ccccc3)cc2)c1 | -1.33
49 | O=[N+]([O-])c1cc(C(F)(F)F)ccc1N1CCC(O)CC1 | 10.9
50 | CC(C)n1c(SCC(=O)Nc2ccccc2N2CCOCC2)nc2c1c(=O)n(C)c(=O)n2C | 1.63
51 | COc1ccc(S(=O)(=O)N2CCCCC2)cc1NC(=O)C1CC1C (stereo not drawn) | 4.31
52 | Cc1noc(NS(=O)(=O)c2ccc(NC(=O)COc3ccccc3)cc2)c1C | 0.478
53 | Cc1ccc(S(=O)(=O)N2CCC(C)CC2)c([N+](=O)[O-])c1 | 6.38
54 | Cc1cc(C)c2c3c(sc2n1)C(c1cccc(F)c1)C(C#N)=C(N)O3 (stereo not drawn) | 0.935
55 | CC1(C)CC(=O)C(C(C2=C(O)CC(C)(C)CC2=O)c2cccnc2)C(=O)C1 (stereo not drawn) | 6.85
56 | CS(=O)(=O)N(CC(=O)Nc1ccccc1Sc1ccccc1)c1cccc(Br)c1 | 0.112
57 | COc1ccc(/C=C/C(=O)Nc2cccnc2Cl)cc1 | 21.6
58 | CC(=O)c1cccc(NC(=O)C2C3CCC(C3)C2C(=O)O)c1 (stereo not drawn) | 11.7
59 | NS(=O)(=O)c1ccc(CNC(=O)c2cc(-c3cccnc3)nc3ccc(Cl)cc23)cc1 | 12.5
60 | O=C(Nc1ccc(F)cc1)c1cc2ccccc2o1 | 16.4
61 | O=C(NNC(=S)Nc1ccc(OC(F)F)cc1)c1cc2c(s1)CCCC2 | 14.3
62 | CCc1nc2ccccc2c(C(=O)OCC(=O)Nc2ccc(S(=O)(=O)N3CCOCC3)cc2)c1C | 10.1
63 | Cc1ccc(S(=O)(=O)NC(C(=O)OCC(=O)NC(=O)c2cccn2C)C(C)C)cc1 (stereo not drawn) | -10.8
64 | CC12CCC(C1)C(C)(C)C2NS(=O)(=O)c1ccc(F)cc1 (stereo not drawn) | 10.4
65 | COc1ccc(N2C(=O)c3ccccc3NC23C(=O)N(C)c2ccccc23)cc1 (stereo not drawn) | -4.05
66 | CCOc1ccc(-c2noc(CCC(=O)NC3CCCCC3)n2)cc1OC | 11.7
67 | NS(=O)(=O)c1ccc(CCNS(=O)(=O)Cc2ccc(Cl)cc2)cc1 | 12
68 | O=C(NCCN1CCOCC1)c1cccnc1SCc1ccccc1Cl | 6.95
69 | CS(=O)c1nc(-c2ccc(Br)cc2)cc(-c2ccccc2)c1C#N (stereo not drawn) | 8.96

Row | Structure (SMILES) | hERG current change (%, negative = inhibition) at 1uM [%]
70 | CCOC(=O)c1c(NC(=O)C2CC2)sc2c1CC(C)(C)OC2 | -1.65
71 | Cc1cccc(C(=O)NCCNC(=O)c2ccccn2)c1 | 8.51
72 | O=C1N=C(N2CCCC2)CN1c1ccccc1 | 13.8
73 | C/C=C(\NC(C)=O)c1ccccc1 | 13.5
74 | CN1CCC(N(C)C(=O)c2ccc(Cl)c(S(=O)(=O)N3CCCCC3)c2)CC1 | -5.25
75 | O=C(CCCn1nnnc1CN1CCOCC1)N1CCC(c2ccc(F)cc2)C1 (stereo not drawn) | -0.382
76 | Cn1c2ccc(F)cc2c2nc3ccccc3nc21 | -7.48
77 | COc1cc2c(cc1OC)-c1nc3ccccc3c(=O)n1C(C)(C)C2 | -1.56
78 | COc1cccc(NC(=O)CSc2nc(O)c(C)c(=O)n2-c2ccc(C)cc2)c1 | 21.4
79 | O=C1C(Cl)=C(N2CCCC2)C(=O)N1c1ccc(F)cc1 | 9.35
80 | CCN(CC(=O)Nc1cc(Cl)ccc1C)C(=O)CSCc1c(C)noc1C | 17
81 | CCOC(=O)c1cnn(-c2nc(-c3ccc(F)cc3)cs2)c1C(F)(F)F | -7.69
82 | O=C(NCCC1=CCCCC1)c1cnccn1 | 10.3
83 | COc1ccc2nc(N3CCCC3)c(C#N)cc2c1 | 5.19
84 | Cc1coc2cc3oc(=O)c(CCC(=O)NCCCN4CCOCC4)c(C)c3cc12 | 11
85 | OC(CN1CCN(c2ccccn2)CC1)Cn1c2ccccc2c2ccccc21 (stereo not drawn) | -15
86 | CCn1c(SCc2ccccc2)nnc1C1CCCCC1 | 2.55
87 | N#Cc1c(-c2ccccc2)nc(SCC(=O)N(c2ccccc2)c2ccccc2)[nH]c1=O | 8.6
88 | O=C(CN1CCOCC1)NCc1ccccc1Cl | 18.6
89 | COc1ccc(C)cc1N(CC(=O)N1CCc2ccccc2C1)S(C)(=O)=O | 7.35
90 | Cc1ccc(NC(=O)CSc2nc3ccccc3c(=O)n2CCCC(=O)NCCCN2CCOCC2)cc1C | -29.3
